# Laboratory results taken from PMC4336329 (PLoS ONE, 2015).
# Out of some 310,000 compounds screened, about 2,200 (0.71%) showed an effect of 50% or more. The effect is printed as a negative number. Some of the results follow.
# Target: human ether-à-go-go-related gene (hERG) potassium channel (human, UniProt Q12809)
# Assay: primary screen, population patch clamp on CHO cells stably expressing hERG
# Chain of human ether-à-go-go-related gene (hERG) potassium channel (Q12809 whole entry, looked up): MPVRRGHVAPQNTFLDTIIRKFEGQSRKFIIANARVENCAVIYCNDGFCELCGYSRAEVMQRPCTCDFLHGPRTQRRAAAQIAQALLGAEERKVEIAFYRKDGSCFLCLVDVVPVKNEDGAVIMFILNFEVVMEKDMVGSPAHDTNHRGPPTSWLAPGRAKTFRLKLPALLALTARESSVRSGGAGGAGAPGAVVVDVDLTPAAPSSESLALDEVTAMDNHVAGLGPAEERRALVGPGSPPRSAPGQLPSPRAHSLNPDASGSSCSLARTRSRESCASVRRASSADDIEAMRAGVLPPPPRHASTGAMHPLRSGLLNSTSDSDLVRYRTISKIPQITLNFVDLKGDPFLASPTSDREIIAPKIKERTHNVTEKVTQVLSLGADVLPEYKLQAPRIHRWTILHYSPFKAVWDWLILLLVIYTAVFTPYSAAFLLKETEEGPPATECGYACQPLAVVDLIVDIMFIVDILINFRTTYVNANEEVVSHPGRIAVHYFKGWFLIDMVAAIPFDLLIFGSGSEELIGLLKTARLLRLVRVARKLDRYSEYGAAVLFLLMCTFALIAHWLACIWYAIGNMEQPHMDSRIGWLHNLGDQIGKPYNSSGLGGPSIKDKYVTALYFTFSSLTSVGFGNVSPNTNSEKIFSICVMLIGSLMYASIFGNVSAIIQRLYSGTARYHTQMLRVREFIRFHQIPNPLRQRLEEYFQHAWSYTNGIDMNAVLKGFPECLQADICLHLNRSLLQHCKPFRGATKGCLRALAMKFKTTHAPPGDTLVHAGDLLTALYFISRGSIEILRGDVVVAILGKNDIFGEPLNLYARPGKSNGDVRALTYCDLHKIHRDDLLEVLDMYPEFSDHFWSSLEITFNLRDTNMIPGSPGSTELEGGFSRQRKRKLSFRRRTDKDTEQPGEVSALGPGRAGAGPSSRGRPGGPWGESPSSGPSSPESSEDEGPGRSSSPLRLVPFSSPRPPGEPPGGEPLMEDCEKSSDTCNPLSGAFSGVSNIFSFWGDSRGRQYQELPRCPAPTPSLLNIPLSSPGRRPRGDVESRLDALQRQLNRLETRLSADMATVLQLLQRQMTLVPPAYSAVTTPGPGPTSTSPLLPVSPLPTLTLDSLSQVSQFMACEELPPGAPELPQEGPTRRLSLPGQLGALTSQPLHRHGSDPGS
row,Compound,"hERG current change (%, negative = inhibition) at 1uM [%]"
1,CCOC(=O)C1CCN(c2cc(=O)n(C3CCCCC3)c(=O)[nH]2)CC1,8.28
2,O=C(CN(C(=O)CCC(=O)Nc1nccs1)c1cccc(F)c1)NCc1ccc2c(c1)OCO2,12.6
3,Cc1cc(C)c(S(=O)(=O)Nc2ccc3[nH]c(=O)[nH]c3c2)c(C)c1,9.78
4,Cc1ccc(NC2SC(=O)N(Cc3cccc(C(=O)O)c3)C2=O)c(C)c1 (stereo not drawn),11.1
5,COc1ccc(-c2csc3nc(C)nc(N4CCN(C(C)=O)CC4)c23)cc1OC,3.19
6,CCOc1nc2cnccc2n(CC(=O)Nc2cccc(C)c2)c1=O,11.6
7,O=C(CCS(=O)(=O)c1ccccc1Cl)NCCC1=CCCCC1,1.55
8,Cc1cc(NS(=O)(=O)c2ccc(NC(=O)CCCOc3cccc(C)c3C)cc2)no1,1.65
9,Cc1nc2nc(SCC(=O)NCc3ccco3)nn2c(C)c1Cc1c(F)cccc1Cl,-6.28
10,CCCn1cnc2cc(NCc3cccc(OC)c3O)ccc21,4.5
11,Nn1c(SCC(=O)N2CCOCC2)nnc1-c1ccco1,9.16
12,O=C(CN1C(=O)c2cccc3cccc1c23)Nc1ccc(S(=O)(=O)Nc2nccs2)cc1,5.66
13,COc1ccccc1C1=NOC(C)(c2sc(-c3ccccc3)nc2C)C1 (stereo not drawn),17.2
14,CCc1ccc(NC(=O)CCC(=O)c2ccc(C)cc2)cc1,18.1
15,O=C(NNC(=O)c1ccccc1[N+](=O)[O-])c1csc(N2CCOCC2)n1,0.109
16,Cc1ccc(S(=O)(=O)N2CCCC2)cc1C(=O)NCC(C)(C)N1CCOCC1,17.2
17,CC1CN(c2ncc(/C=N/NC(=O)c3ccccc3O)s2)CC(C)O1 (stereo not drawn),13.5
18,O=C1C=C(O)CC(c2cccs2)C1 (stereo not drawn),15.4
19,COc1ccc(CN(Cc2cc3cc(OC)c(OC)cc3[nH]c2=O)C(=O)NC2CCCCC2)cc1,8.68
20,CCc1nnc(NC(=O)Cc2ccc(Br)cc2)s1,2.38
21,O=c1[nH]c2ccc(Cl)cc2c(-c2ccccc2)c1CN1CCOCC1,0.381
22,c1csc(-c2nn[nH]n2)c1,4.96
23,COC(=O)c1scc(C)c1-n1ccc(C(=O)C(=O)N(C)C)c1,9.29

row,Compound,"hERG current change (%, negative = inhibition) at 1uM [%]"
1,Cc1ncoc1C(=O)N1CCCC(N2CCN(c3ccccc3F)CC2)C1 (stereo not drawn),11.3
2,COc1ccccc1NC(=S)N(Cc1ccco1)Cc1cc2cccc(C)c2[nH]c1=O,5.27
3,Cc1ccc(C(=O)Nn2cnnc2)cc1S(=O)(=O)N1CCOCC1,3.09
4,O=C1N=C(N2CCCC2)S/C1=C\c1cn[nH]c1-c1ccccc1,5.58
5,CNC(=O)CCn1nc(-c2ccc(C)cc2)c2ccccc2c1=O,10.5
6,CCc1nc(SCC(=O)NNC(=O)C2CCCCC2)c2ccccc2n1,5.44
7,COc1ccc(CN2CCN(Cc3ccccc3)CC2)c(OC)c1,-43.8
8,Cc1ccc(-n2nnnc2-c2cccnc2)cc1,10.9
9,CCCOC(=O)c1ccc(NC(=O)CC(C)(C)C)cc1,6.8
10,Cc1cc(C)c(NC(=O)/C=C\C(=O)O)c(Cl)c1,0.0953
11,Cc1onc(-c2ccccc2Cl)c1C(=O)Nc1nn[nH]n1,16.1
12,O=C(COC(=O)CNC(=O)c1ccco1)Nc1ccc(Cl)cn1,-5.22
13,O=C(c1cccs1)n1nc(-c2ccccc2)nc1NCc1ccco1,-4.36
14,Cc1ccc(Oc2nc3c(c(=O)n(C)c(=O)n3C)n2C)cc1C,7.21
15,CC[C@@]1(c2cccc(C)c2)C(=O)N(C(=O)OC)N1C(=O)OC,19.2
16,Nc1ccc(S(=O)(=O)Nc2nccc(/C=C/c3ccc(Br)s3)n2)cc1,14.7
17,COCCn1ccc2c(OCC(=O)Nc3cccc(NC(C)=O)c3)cccc2c1=O,12.3
18,O=C(COc1cccc2ccccc12)Nc1nc2ccccc2[nH]1,3.88
19,O=C(COc1ccc2c(c1)OCO2)Nc1ccccc1F,5.62
20,Cc1nc(-c2ccccc2)sc1C1(C)CC(c2c(Cl)cccc2Cl)=NO1 (stereo not drawn),10.7
21,CCOC(=O)C1CCN(Cc2nc3ccccc3c(=O)n2-c2ccc(F)cc2)CC1,-3.3
22,COc1ccc(NC(=O)C(NC(C)=O)C(=O)NCc2ccccc2OC)cc1 (stereo not drawn),8.99
